# Assay results published in PubChem BioAssay AID504332 (National Center for Advancing Translational Sciences (NCATS), 2011).
# The campaign covered roughly 350,000 compounds. About 31,000 (8.9%) were called active. Inconclusive means that the source gave no clear call. Such entries were picked first, then a sample of the others. Calls come from the whole dose curve; as a rule, active = well fitted inhibition curve with a large enough effect; inconclusive = small, poorly fitted or top-dose-only effect; inactive = no such curve, though single readings can be large or run the other way. Potencies of inconclusive entries are doubtful fits and often do not repeat.
# Biological target: Histone-lysine N-methyltransferase EHMT2 (Homo sapiens) (UniProt Q96KQ7)
# Assay: qHTS Assay for Inhibitors of Histone Lysine Methyltransferase G9a; note: nearly all actives have a fitted effect of over 75% in size
# Settings: G9a H3K9 monomethylation, AlphaScreen, 2 h; activity, negative = inhibition: at 59 µM (top of the series) unless noted
# How it was run: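 Compounds were preincubated with 20 nM G9a for 15 min, after which biotinylated H3K9 peptide (500 nM) and SAM (20 uM) started a 2 h room-temperature reaction. Monomethylated product was quantified by antibody-based AlphaScreen chemiluminescence.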
# % is set by controls: 0 for no effect and ±100 for the full control effect; potency is the fitted concentration of half-maximal effect; tags give direction and shape of the fitted curve.
# Chain of UniProt Q96KQ7 (Q96KQ7 whole entry, looked up): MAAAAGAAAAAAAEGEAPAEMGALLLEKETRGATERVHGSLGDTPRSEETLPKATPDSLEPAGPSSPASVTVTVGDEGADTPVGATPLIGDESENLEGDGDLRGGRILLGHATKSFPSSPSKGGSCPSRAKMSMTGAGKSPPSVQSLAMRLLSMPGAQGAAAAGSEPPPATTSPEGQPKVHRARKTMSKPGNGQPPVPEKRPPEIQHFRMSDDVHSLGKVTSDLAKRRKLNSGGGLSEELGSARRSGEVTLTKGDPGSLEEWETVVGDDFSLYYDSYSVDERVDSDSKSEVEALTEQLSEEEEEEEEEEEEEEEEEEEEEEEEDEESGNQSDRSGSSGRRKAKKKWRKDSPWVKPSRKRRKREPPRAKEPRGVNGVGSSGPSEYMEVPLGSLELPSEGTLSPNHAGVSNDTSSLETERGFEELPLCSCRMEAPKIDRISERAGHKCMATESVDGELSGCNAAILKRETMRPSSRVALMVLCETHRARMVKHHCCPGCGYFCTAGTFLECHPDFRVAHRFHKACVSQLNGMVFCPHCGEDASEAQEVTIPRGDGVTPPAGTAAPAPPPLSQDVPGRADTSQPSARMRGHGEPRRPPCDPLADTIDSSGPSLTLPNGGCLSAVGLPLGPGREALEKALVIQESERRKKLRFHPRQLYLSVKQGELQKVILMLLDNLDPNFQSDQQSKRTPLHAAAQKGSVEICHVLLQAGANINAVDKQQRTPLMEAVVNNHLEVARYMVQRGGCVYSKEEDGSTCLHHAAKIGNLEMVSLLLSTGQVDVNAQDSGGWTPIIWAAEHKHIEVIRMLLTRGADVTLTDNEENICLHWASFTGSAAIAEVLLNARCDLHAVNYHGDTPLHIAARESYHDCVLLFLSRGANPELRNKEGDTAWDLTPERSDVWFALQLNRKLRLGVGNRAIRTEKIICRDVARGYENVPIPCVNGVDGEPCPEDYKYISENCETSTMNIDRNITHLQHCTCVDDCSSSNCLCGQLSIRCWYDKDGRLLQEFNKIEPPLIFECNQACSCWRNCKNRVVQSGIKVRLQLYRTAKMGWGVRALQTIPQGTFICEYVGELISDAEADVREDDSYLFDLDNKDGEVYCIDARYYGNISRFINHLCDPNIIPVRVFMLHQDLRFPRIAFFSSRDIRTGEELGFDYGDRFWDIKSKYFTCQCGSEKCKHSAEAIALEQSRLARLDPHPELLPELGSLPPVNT
Compound,"activity, negative = inhibition",Potency
COc1ccc(NC(=O)CC2C(=O)N(c3cccc(OC)c3)C(=O)N2Cc2ccc3c(c2)OCO3)cc1 (centres undefined),inactive: -6.86%,–
Cc1ccc(/C=N/NC(=O)NC2CCCCC2)o1,–,"inconclusive: 89.1 µM [inhibitor, single point]"
CC(/C=N/Nc1nc(C)cc(=O)[nH]1)=C\c1ccccc1,–,"inconclusive: 79.4 µM [inhibitor, single point]"
CCOC(=O)C1(CCc2ccccc2)CCN(Cc2cnc(N(C)C)s2)CC1,–,"inconclusive: 70.8 µM [inhibitor, partial curve, poor fit]"
Cc1nc(=S)c2ccccc2[nH]1,–,"inconclusive: 2.51 µM [inhibitor, partial curve, poor fit]"
CCc1c(C)[nH]c2ccc(OC)cc2c1=S,–,active: 4.47 µM
Cc1cc(C)cc(NC(=O)C2CCN(S(=O)(=O)c3cccc(-c4noc(C)n4)c3)CC2)c1,inactive: -10.4%,–
CCOc1ccc(C(=O)NC(=S)Nc2cccnc2)cc1,–,"inconclusive: 89.1 µM [inhibitor, single point]"
CC(=O)c1ccc(N2CCN(C(=O)C3CCC3)CC2)cc1,–,"inconclusive: 10 µM [inhibitor, partial curve, poor fit]"
O=C(CN1C(=O)NC2(CCCCC2)C1=O)Nc1ccc(S(=O)(=O)N2CCOCC2)cc1,–,"inconclusive: 12.6 µM [inhibitor, partial curve]"
O=C(CN1CCN(C(=O)C2CCCO2)CC1)Nc1ccc(Cl)c(Cl)c1 (centres undefined),–,active: 79.4 µM
COc1ccc(N2CCN(Cc3nc4c(c(=O)n(C)c(=O)n4C)n3C(C)C(C)=O)CC2)cc1 (centres undefined),–,"inconclusive: 56.2 µM [inhibitor, partial curve]"
COCc1nnc(NC(=O)c2cc(C(=O)OC)cc([N+](=O)[O-])c2)s1,inactive: -1.21%,–
COc1ccc(Nc2nc(N)nc(CN3CCc4ccccc4C3)n2)cc1,–,"inconclusive: 89.1 µM [inhibitor, single point]"
Cc1ccc(CNC(=O)CCCN2C(=O)COc3ccc(C)cc32)cc1,inactive: 4.27%,–
Fc1ccc(Br)cc1C1C=C(c2ccc(Br)cc2)Nc2nnnn21 (centres undefined),–,active: 11.2 µM
O=C(Nc1ccc2c(c1)nc1n2CCN(Cc2ccccc2)C1)c1cccs1,–,"inconclusive: 3.16 µM [inhibitor, partial curve, poor fit]"
CC1=C(CC/C(C)=N/NC(N)=S)C(C)(C)CCC1,–,"inconclusive: 0.708 µM [inhibitor, full curve]"
Cc1ccccc1NCC(=O)N/N=C/C(Br)=C/c1ccccc1,–,"inconclusive: 22.4 µM [inhibitor, partial curve, poor fit]"
COC(=O)Cc1ccc(NC(=S)NCc2ccco2)cc1,–,"inconclusive: 89.1 µM [inhibitor, single point]"
Cc1cccc(CSc2ccc3nnc(-c4ccccn4)n3n2)c1,–,"inconclusive: 56.2 µM [inhibitor, partial curve, poor fit]"
COc1ccc(C(=O)c2nc3c(n2O)CCCC3)cc1OC,–,"inconclusive: 100 µM [inhibitor, single point]"
CCOc1nc2ccccc2cc1/C=C/C(=O)O,–,active: 50.1 µM

Compound,"activity, negative = inhibition",Potency
Cc1ccnc(NS(=O)(=O)c2ccc(NC(=O)Cc3ccccc3)cc2)n1,–,"inconclusive: 25.1 µM [inhibitor, single point]"
COc1ccc(C2(CNC(=O)CCC(=O)O)CCCC2)cc1,–,"inconclusive: 63.1 µM [inhibitor, partial curve, poor fit]"
CCN1CCN(C(=O)c2cn(CCOC)c(=O)c3c2c2ccccc2n3C)CC1,–,"inconclusive: 35.5 µM [inhibitor, partial curve, poor fit]"
CC1CCc2c(sc(NC(=O)c3cc(-c4ccc(F)cc4)on3)c2C(N)=O)C1 (centres undefined),inactive: -4.05%,–
COc1ccc(-c2nc3nc(C)c(Cc4ccccc4)c(=O)n3[nH]2)cc1,–,"inconclusive: 0.141 µM [inhibitor, full curve, poor fit]"
O=C(NCc1ccccc1)C12CN(Cc3ccccc3)CC1C(c1cccc([N+](=O)[O-])c1)=NO2 (centres undefined),–,active: 8.91 µM
CC1CCCCN1CCCNC(=O)c1ccc(Br)cc1 (centres undefined),inactive: -1.5% [at 102 µM],–
NC(=O)c1nsc(C(=O)N(c2ccccc2)C(C(=O)NCc2ccc(F)cc2)c2ccc(O)cc2)c1N (centres undefined),–,"inconclusive: 89.1 µM [inhibitor, partial curve, poor fit]"
Cc1ccccc1NS(=O)(=O)c1cc(C(=O)NCc2ccco2)ccc1C,inactive: -10.6% [at 12.7 µM],–
CCCc1nnc(NC(=O)COc2ccc3c(c2)OCO3)s1,inactive: 4.67% [at 102 µM],–
COc1cc(N/N=C(\C)c2ccc(O)c(C)c2)nc(-c2ccccc2)n1,–,"inconclusive: 44.7 µM [inhibitor, partial curve, poor fit]"
CSc1nc2ccc(NC(=O)C3CC(=O)N(Cc4ccco4)C3)cc2s1 (centres undefined),–,"inconclusive: 56.2 µM [inhibitor, partial curve, poor fit]"
Cc1cccc(Nc2nnc(SCC(=O)Nc3cccc(S(=O)(=O)N4CCCCC4)c3)s2)c1,–,active: 3.55 µM
CCOC(=O)c1c(-c2ccc(-c3ccccc3)cc2)csc1NC(=O)CCN1CCOCC1,–,"inconclusive: 39.8 µM [inhibitor, partial curve, poor fit]"
O=C1CN(C(=O)c2ccc(Br)o2)C(c2ccc(F)cc2)c2cc(Cl)ccc2N1 (centres undefined),inconclusive: -65.3% [inhibitor],–
Cn1c(SCC(=O)NC2CC2)nnc1-c1ccco1,–,"inconclusive: 70.8 µM [inhibitor, partial curve, poor fit]"
O=C(CCc1nc2ccccc2c(=O)[nH]1)OCc1ccc(-c2ccccc2)cc1,–,"inconclusive: 89.1 µM [inhibitor, single point]"
COC(=O)c1ccc(C(=O)NN)cc1,inactive: 1.4% [at 102 µM],–
O=C(Cn1c(C(=O)N2CCN(C3CCCC3)CC2)cc2sccc21)c1ccccc1,–,"inconclusive: 100 µM [inhibitor, single point]"
Fc1ccc(C(c2nnnn2C2CCCC2)N2CCN(Cc3ccccc3)CC2)cc1 (centres undefined),–,"inconclusive: 79.4 µM [inhibitor, single point]"
CCOC(=O)C1CCCN(C(=O)Cc2ccc(C)cc2)C1 (centres undefined),inactive: 17.4% [at 102 µM],–
CCN(CC)S(=O)(=O)c1cccc(C(=O)N[C@H](C(=O)NCc2ccc(Cl)cc2)C(C)C)c1,–,"inconclusive: 25.1 µM [inhibitor, partial curve, poor fit]"
CC(C)C[C@H](NC(=O)c1nc[nH]c1C(=O)NC1CCNCC1)C(=O)OC(C)(C)C,inconclusive: -75.5% [inhibitor] [at 2.33 µM],–

Compound,"activity, negative = inhibition",Potency
CS(=O)(=O)c1nc(S(=O)(=O)c2ccc(Cl)cc2)c(N2CCCCCC2)s1,inactive: 12.1% [at 102 µM],–
Cc1csc(NC(=O)C2COc3ccccc3O2)n1 (centres undefined),–,"inconclusive: 25.1 µM [inhibitor, partial curve, poor fit]"
Cn1c(=O)c2nc(SCC(=O)Nc3ccc(Cl)c(Cl)c3)n(C)c2n(C)c1=O,inactive: -2.97%,–
COc1ccc(Cc2nnc(SC(C)C(=O)Nc3ccc(C(N)=O)cc3)o2)cc1 (centres undefined),–,"inconclusive: 1.41 µM [inhibitor, full curve]"
O=S(=O)([O-])CCC[n+]1ccc(Oc2ccccc2)cc1,–,active: 28.2 µM
Cc1cc(C)cc(NC(=O)Cn2cc(C(=O)c3ccccc3)c(=O)c3ccc(C)nc32)c1,inactive: 0.539%,–
COc1ccc2nc(SCc3ccccc3)nc(C)c2c1,inactive: 285%,–
O=C(CSc1nc2cc(S(=O)(=O)N3CCOCC3)ccc2o1)NC1CCCc2ccccc21 (centres undefined),–,"inconclusive: 2 µM [inhibitor, partial curve, poor fit]"
O=C(Nc1cccc(-c2ccc(N3CCOCC3)nn2)c1)c1ccc([N+](=O)[O-])cc1,–,"inconclusive: 50.1 µM [inhibitor, partial curve]"
CCN(CC)CCCn1c(=S)[nH]c2cc(C(=O)OC)ccc2c1=O,inconclusive: -90.9% [inhibitor],–
O=C(CSc1nc2ccccc2[nH]1)N=Nc1c(O)[nH]c2ccccc12,–,active: 44.7 µM
CCOc1ccccc1NS(=O)(=O)c1ccc2c(c1)NC(=O)CCS2,–,"inconclusive: 89.1 µM [inhibitor, single point]"
COc1ccc(CNC(=O)Cn2nc(C)c3c(C)n(-c4ccccc4)nc3c2=O)cc1OC,inactive: -24.4%,–
CS(=O)(=O)NC1c2cccc3cccc(c23)C1N1CCOCC1 (centres undefined),–,"inconclusive: 70.8 µM [inhibitor, partial curve, poor fit]"
CC1(C)Cc2c(cnn2-c2ccc(F)cc2)C(NC(=O)CCCN2CCCCC2=O)C1 (centres undefined),inactive: 25% [at 102 µM],–
O=C(Nc1ccc(Cl)cc1)c1cc2c(-c3ccccc3)nn(-c3ccccc3)c2s1,inactive: 7.74%,–
Cc1cc(C)c(C#N)c(SCCN2CCCCC2)n1,–,"inconclusive: 89.1 µM [inhibitor, single point]"
CC(=O)Nc1ccc(N2CCCC(C)C2)c([N+](=O)[O-])c1 (centres undefined),–,"inconclusive: 44.7 µM [inhibitor, partial curve]"
COc1cc(CNCCc2c[nH]c3ccccc23)cc(Cl)c1OCC(N)=O,–,"inconclusive: 17.8 µM [inhibitor, partial curve, poor fit]"
CCOC(=O)CSc1nc2ccc(NC(=O)COc3ccccc3C)cc2s1,inactive: -4.75%,–
O=C(Nc1cc(S(=O)(=O)N2CCOCC2)ccc1-n1cncn1)c1ccc(Cl)cc1,–,"inconclusive: 79.4 µM [inhibitor, partial curve, poor fit]"
Cn1nc(C(=O)Nc2nc(-c3ccccn3)cs2)c2ccccc2c1=O,–,active: 4.47 µM
O=C(COC(=O)c1ncc(Cl)c(Cl)c1Cl)Nc1ccc(Cl)cn1,–,active: 44.7 µM
